The values that follow come from ChEMBL document CHEMBL4888484, “Replenishing the malaria drug discovery pipeline: Screening and hit evaluation of the MMV Hit Generation Library 1 (HGL1) against asexual blood stage Plasmodium falciparum ,using a nano luciferase reporter read-out” (2022).

The whole screen tested about 150,000 compounds, of which about 540 (0.36%) showed an effect of 50% or more. The list shows a part of the results.

For the assay, the system named is Plasmodium falciparum. Put plainly: Primary screen in NF54 nanoGlo assay, in single point, at 2uM, 72h; a lower Z score goes with more inhibition. The format is functional, Erythrocyte. As to conditions: timepoint 72 hour.
Regarding `COc1ccc(Nc2ccc(NC(=O)CCc3cccnc3)cc2)cc1`, the “% Inhibition” value is recorded as -2% and the Z score worked out at 0.36.
`Cn1ccc(CNC2CCC(c3cccc(F)c3)C2)n1` (centres undefined): the “% Inhibition” value was -5% and the Z score amounted to 0.68.
For `N#CCC(=O)N1CCC[C@@H](C(F)(F)F)[C@H]1C(F)(F)F`, in that order: -2% and 0.44.
For `CCc1cc(N2CCC(N[C@@H](CC)c3ccncc3)CC2)nc(N(C)C)n1`, in that order: -8% and 1.05.
For `Cc1ccccc1[C@]1(F)CCN(C(=O)Nc2c(C)noc2C(C)C)C1`, in that order: -4% and 0.48.
In the case of `Cc1nc2n(n1)CCN(C(=O)Nc1cccc(N(C)C(C)C)c1)C2`, the “% Inhibition” value worked out at 12% and the Z score was -1.14.
For `O=C(Nc1ccon1)c1nc(-c2cnccn2)no1`, in that order: -6% and 0.83.
As for `O=S1(=O)CCC(CN2CCOC(c3ccc(Br)cc3)C2)C1` (centres undefined), the “% Inhibition” value is on record as -30% and the Z score is given as 3.47.
For `Cc1cc(=O)n2nc(NCc3ccccc3)c(NC(=O)c3ccccc3)c2[nH]1`, in that order: -25% and 3.34.
For `COCc1ccc(C(=O)N(Cc2cccc(OC)c2OC)C2CCCC2)o1`, in that order: -10% and 1.39.
For `Cc1ccc(S(=O)(=O)c2c(NS(=O)(=O)c3ccc(F)cc3)n(C[C@H]3CCCO3)c3nc4ccccc4nc23)cc1`, in that order: 6% and -0.71.
Turning to `CC(=O)N(CCN1CCOCC1)[C@H]1CCN(S(=O)(=O)c2cc(F)ccc2C)C1`, the “% Inhibition” value was found to be 4% and the Z score was -0.59.
As to `C[C@H](NCc1ccccc1OCC(=O)N1CCCCC1)c1nncn1C`, the “% Inhibition” value came to 3% and the Z score was -0.41.
Consider `CC(C)c1ccc(NC(=O)[C@@H](c2ccccc2)N(Cc2ccccc2)Cc2ccccc2)cc1`, for which the “% Inhibition” value is listed as 2% and the Z score is -0.35.
In the case of `Cc1ccc(Cn2ncc3c(NC4CCCCC4)ncnc32)cc1`, the “% Inhibition” value was found to be 3% and the Z score is -0.33.
As for `CC1(C)C[C@@H]1C(=O)NCCCn1ccnn1`, the “% Inhibition” value was -4% and the Z score was determined as 0.85.
The like results for `CC[C@H](C)N(Cc1ccc(OS(=O)(=O)C(C)C)cc1)C(=O)CC(C)(C)C` were, in that order, -4% and 0.58.
For `O=C(NCCC1=CCCCC1)c1ccc([C@H]2Nc3cc(C(F)(F)F)ccc3S(=O)(=O)N2)cc1`, in that order: -11% and 1.34.
With `C#CCNC(=O)C12CC(CN1Cc1ccccc1)C2`, the “% Inhibition” value was -14% and the Z score amounted to 1.88.
Turning to `Cc1ccc(S(=O)(=O)N2CCN(S(=O)(=O)c3ccc(C)cc3)C2c2ccc(N(C)C)cc2)cc1`, the “% Inhibition” value is -12% and the Z score is listed as 2.24.
`O=C(C1CCCC1)N1CC2CC=CCC2C1` (centres undefined): the “% Inhibition” value is -7% and the Z score amounted to 0.77.
Turning to `CC(C)Cc1nc(C(=O)N2CC(O)CC2c2ccccc2)cs1` (centres undefined), the “% Inhibition” value was -18% and the Z score is listed as 2.87.
For the molecule `Cc1nc(N2CCCC2)nc(NCCN2CCC[C@H](CO)C2)c1C`, the “% Inhibition” value is 2% and the Z score was -0.36.
Take `CC[C@@H](C(=O)Nc1cccc(Cl)c1)N(C)C`: the “% Inhibition” value is on record as -13% and the Z score is recorded as 1.75.
The like results for `Cc1n[nH]c(C(=O)NC[C@@H](CO)Cc2ccco2)c1Cl` were, in that order, -14% and 1.34.
The like results for `CN(C)c1nc(N)nc(CNC(=O)CC[C@@H]2CCCN3CCCC[C@H]23)n1` were, in that order, -8% and 1.04.
For `CCO[C@H]1C[C@H](Nc2ncnc3ccc(F)cc23)C1`, in that order: -14% and 2.66.
For the molecule `COc1ccc(-c2cc(C(F)(F)F)nc(N3CCC(C)CC3)n2)cc1OC`, the “% Inhibition” value was -17% and the Z score is 1.62.
For `COCC(C)(C)CNc1nc(N)nc(C)c1Cl`, in that order: -10% and 1.69.
The like results for `CCn1nccc1-c1cccc(-c2noc(-c3ccc(C)c(C)c3)n2)c1` were, in that order, -3% and 0.33.
As to `O=C(c1cc2n(n1)CCC2)N1CCC(c2nc3ccccc3s2)CC1`, the “% Inhibition” value is listed as -15% and the Z score is on record as 1.57.
As for `COCCc1nc2c(c(N3CCN(c4cc(C)ccc4C)CC3)n1)CCOCC2`, the “% Inhibition” value is given as -9% and the Z score was determined as 0.84.
Turning to `Cc1ccc(CNC(=O)c2nc(N3CCCCC3)c3c(C)c(C)n(-c4ccccc4)c3n2)o1`, the “% Inhibition” value was -13% and the Z score stood at 2.01.
The like results for `C[C@@H](C(=O)NC1CCCC1)S(=O)(=O)Cc1ccc(Cl)s1` were, in that order, -4% and 0.79.
The like results for `Cc1cncc(C(=O)N(Cc2noc(C)n2)C(C)C)c1` were, in that order, 2% and -0.22.
Consider `CN(c1ccccc1)c1ncc(C(=O)O)s1`, for which the “% Inhibition” value is reported as -8% and the Z score is 1.06.
In the case of `COc1ccc(Cl)c2c(O)c(CN(C)C3CCCCC3)c(C)nc12`, the “% Inhibition” value is reported as -8% and the Z score came out at 1.1.
Regarding `COCc1nc(CNC(=O)N2CCC[C@H](C3CCCC3)C2)cs1`, the “% Inhibition” value is listed as -3% and the Z score is reported as 0.31.
The like results for `Cc1nc(-c2cccc(CO)c2)c2cnn(C)c2n1` were, in that order, -13% and 2.21.
For `Cc1cccc(-c2cn([C@@H](Cn3ccnc3)C(C)(C)C)nn2)n1`, in that order: -13% and 2.23.
`O=C(Nc1ccccc1)C1C(=O)NC2(c3ccccc3)CC1c1ccccc1O2` (centres undefined): the “% Inhibition” value is reported as 2% and the Z score is -0.2.
With `Cc1ccc(F)cc1-c1nnc(NS(=O)(=O)c2ccccc2)o1`, the “% Inhibition” value was 0% and the Z score is 0.05.
